The source gives no read counts; variants with many changes may rest on few reads.

The record followed here is the RNAGym collection of RNA variant scans (doi:10.7554/elife.90254).

To fix the notation:
B1: LINE1-mini (parent)
chain: GGCAGAGCUCAACACAGCGUGGCAAAGUGGCUGUGGCUAGACUGCC

In the series the parent is B1. The series can be described thus: self-cleavage, relative activity (ratio to wild type); higher = more cleavage; in vitro, sequencing; the parent is a self-cleaving ribozyme.
Consider U20C U28A G29U C31U C37U, for which the self-cleavage is 0.

For C23A A25U A26G G33A U34C, the self-cleavage worked out at 0.12. The same measure for G22A G30A G36U: 0.04; for G22C C37U G44A: 0.07; for G22C C37U G44U: 0.25. Under G21U U28C U38C G40C stands 0.03. Under G22U U32C U43G stands 0.03; under G21A A24U C42A, 0.67; under G21A G29U A41G, 0.12. Turning to G22C G30C U34A, the self-cleavage was found to be 0.04. Under U20G A25G G35C U38A A39C G40U stands 0.06; under G22C A26C G27U G36U A41G, 0.07.

Take G22U U34A A41U C42U: the self-cleavage is 0.05. Consider U20C G33C C42G, for which the self-cleavage was 0.05. As to G21A G22U C46U, the self-cleavage amounted to 1.38. For G21C U28C G33U, the self-cleavage was 0.06.

Take U20G A26U C46G: the self-cleavage turned out to be 1.05.

With G22A A25C G35U, the self-cleavage came out at 0.

On to G22U C23A C42G, for which the self-cleavage is 0.05. As for G21A G22U G33A, the self-cleavage was determined as 0.38. The same measure for G21U A24C U32G: 0.09; for U20G G22A A39G: 0.12; for U20G G22U C23A U32A U43A: 0.03. As to G21U U28C U32A G33U, the self-cleavage worked out at 0.06.

Regarding G21C A26C C31A, the self-cleavage came to 0.43. Take G22A G27U C31U G40C: the self-cleavage turned out to be 0.02.

On to C23A A24G G29C C42A G44A, for which the self-cleavage stood at 0.1. Under G22A A39G G40U G44C stands 0.07; under U20G G29C G40U, 0.04.

In the case of U20G G22U C31G G44U C45U, the self-cleavage was found to be 0.07. In the case of U20C U28A C31G A39U U43A, the self-cleavage amounted to 0.02.

Regarding G22U G30A U34C G36C, the self-cleavage amounted to 0.02. The same measure for G22C A26C G29U: 0.23; for G21C G22U U28G: 1.06. Under G21C G22A U32G U34A C42G stands 0.03; under G22C A25G G30A U34G, 0.04. Under G22U G29U C31G stands 0.12. As for G22U C37G A41G, the self-cleavage was found to be 0.01. Under U20G G22C G29A U34A A41U C42A stands 0.18; under G21U G30U C31A U32A, 0.13; under G21A G22A A25U C31G C45U, 0.1. Under G22U A24G G27A stands 0.1. Regarding G22C A25G C42U, the self-cleavage turned out to be 0.76.

G21U G36A A39G: the self-cleavage worked out at 0.05. The same measure for G21U A41C C42A: 0.34. The same measure for U20G G21C C37U: 0.02; for U20C G22A C31A U32C U34C: 0.04.

In the case of G22C U43A C46G, the self-cleavage came out at 0.02. Take G22C C31U U34G G35C: the self-cleavage was 0.04. On to G21C U28A G36U, for which the self-cleavage was 0.02. The same measure for G21U G30C U43A: 0.03. With U20G G27A U28G U43A C45G, the self-cleavage came to 0.01. Turning to G21C G30U A41G, the self-cleavage turned out to be 0.57. Under U20G A25G G35A C37A G40A stands 0.06. Consider G22C A26C C46U, for which the self-cleavage was found to be 2.45. The same measure for G22C G29U C31A C45G: 0.01; for G21C C31A G40U: 0.15. Consider G22U C23A A41G U43C, for which the self-cleavage was 0.06. With G21C G22U G30U A39G, the self-cleavage came out at 0.02. The same measure for G22A U28G C37A: 0.02. On to U20G G33A C45A, for which the self-cleavage amounted to 0.01. Under G22C C37G C45A stands 0.04; under G21A U34G G35A, 0.05. Under G21U A26G G33U A39U stands 0.03. On to C23A A24C C37G U43G, for which the self-cleavage stood at 0. The same measure for G22A G30U C42A: 0.06.

In the case of G22C G44U C45A, the self-cleavage came out at 0.01.

Take G21U G27U G36C U38G: the self-cleavage was 0.04. Under G22U C23A A26C G27C G36C stands 0.06.

In the case of U20G A25U U28A C45A, the self-cleavage was found to be 0.18. Under G22A A25G C37A stands 0.02; under U20C C37A C45A, 0.25; under U20G G22U G30C U38A A41U C45G, 0.04. As for G21A U32A C46A, the self-cleavage was 0.19. On to G22A G35C G36C, for which the self-cleavage was 0.14. The same measure for G22C A25C C37G U38G: 0.07; for G22U G27U G33A C37G: 0.02. The same measure for G22A G33C C42A C46U: 0.03. The same measure for G22A G27U G40C C42U: 0.17; for G21U G36A C42A: 0.1. On to G22A G35C C42U C46G, for which the self-cleavage is 0.17. The same measure for U20C G35U C45G: 0.

Consider G22U C42A C45A, for which the self-cleavage was 0.02. The same measure for U20C G22A U38G: 0.03.

G21U C23G A24U C45A: the self-cleavage was determined as 0.29. On to G21U U34C U38G, for which the self-cleavage was 0.05. Turning to U20G G33U A39G, the self-cleavage came to 0.03. In the case of G22C A25G G35U, the self-cleavage turned out to be 0.11.

For the variant U20G A25G G40C, the self-cleavage was determined as 0.04. With G21C G29C G44C, the self-cleavage was found to be 0.14. As for G21C C23A U34G C45U, the self-cleavage was determined as 0.12. The same measure for G21U G22U G27U: 0.54.

G21C G36C A41G: the self-cleavage stood at 0.06.

As to G22A U32G U38A, the self-cleavage amounted to 0.1. The same measure for G21U A25G G35U U38G: 0.01. Under U20G G21C G22C stands 0.16. The same measure for U20G G21C G22A: 0.18. For G22C C37A C42U G44C, the self-cleavage turned out to be 0.1. Under G22U A25U C42U stands 3.

Consider G21C U38A C42G U43G, for which the self-cleavage came out at 0.01. The same measure for G22U G29A G36C G40U: 0.09; for G21U G33A A39C: 0.07. The same measure for U20G G33A G36U C45U: 0.04; for G22A C23U C31U: 0.91; for G21A U28C C46A: 0.15. The same measure for G21A G40C G44A C46G: 0.05; for G22U A24C G27C G29U G44U C45A: 0.13. Turning to G21U U32G C37A, the self-cleavage is 0.03. Under G22A A26G G29A U34A G40A stands 0.02; under U20C G33C G36C G40U, 0.03. The same measure for U20G C37A G44A: 0.07.

On to G21A U32C G44C, for which the self-cleavage stood at 0.17. In the case of G22U C23A A24G U28C G35C G36C U43G, the self-cleavage turned out to be 0.01. In the case of G22U A25U G36A, the self-cleavage came out at 0.17. The same measure for G22U U34C C42U: 0.07; for G22U G35A G40U C45A: 0.14. Under G22U G33U C46G stands 0.07; under G22C G30U G40U, 0.09. The same measure for G21U G30A G33A C37U: 0.04. For G21U U34G A39C G44C, the self-cleavage came to 0.02. The same measure for G22U A39G G44C: 0.23; for U20G G30C C31G: 0.09; for G21A U28G G44U: 0.24.

As for G21U G30A U32G, the self-cleavage is 0.29. The same measure for G21C G30U U32G U34G: 0.03.

Turning to G21A G22C A26G G40U C42A, the self-cleavage is 0.04. Under G21A G22C U32A G44C stands 0.06; under G21U U43G C45G, 0.21. Regarding G22U A24C C31A U32G, the self-cleavage was found to be 0.06. Under U20C G21U C45U stands 0.26. The same measure for G22U A25G C45A C46A: 0.58; for G21U U34C A39U: 0.6. Under G22C G36A C46U stands 0.09; under G21U A39U C42U, 0.69. U20G C23U U32G A39C C42G: the self-cleavage is 0.04. On to G22A G29C G44A C45U, for which the self-cleavage turned out to be 0.08.

As for G21U G22U U43C, the self-cleavage came out at 1.96. Under G21A C31A C45A stands 0.08. The same measure for U20C G29U G33U: 0.03. The same measure for G21A C31A G33A U34C C37G: 0.05. For G21C G30U C31G A41G U43C, the self-cleavage turned out to be 0.01. Under G22A G30A G33U C42A stands 0.05; under G22A G35U G36A A39G, 0.52; under U20G C23G U38G, 0. The same measure for U20G A26G G30A C31G: 0.02. The same measure for G21C G30U G40C: 0.04.

As for G21U G22C U43A C45U, the self-cleavage was determined as 0.05. The same measure for G21U U32G U38C: 0.1; for U20C G22C G35U C42U: 0.04; for U20G U28A G30C: 1.18. Under U20C C31A C37A stands 0.02; under G21A A24U G30U G36A, 0.53. The same measure for U20G G27U U32G: 0.02; for G21U G22U U32A: 0.08; for G21C U28G U32G: 0.29. Take G21U A41G C45A: the self-cleavage was 0.04. Under G22C A24U U28C C46U stands 0.59; under G21C A25U G33A, 0.02; under U20G C42G U43G, 0.04. The same measure for G22C A26G G29C G44A C45U: 0.03; for G21C U32C A41U: 0.22; for G21A G33U G40C: 0.05. Under G21U G22A A41C stands 0.11; under G21U U34C U38G U43C, 0.01. For U20C C37U C45A C46G, the self-cleavage came out at 0.01.

Consider G21A G35U C37U A41U, for which the self-cleavage was 0.03.

In the case of G21C U28A G40C, the self-cleavage came out at 0.02.
